Source: PubChem BioAssay AID602393 (Broad Institute, 2012)
Out of some 350,000 compounds screened, about 7,000 (2%) were called active. The shares of active, inactive and inconclusive entries below differ from those in the screen. No stated cut-off is given here; in the data, active means activation above about 40%; inconclusive means no clear call, values can overlap the other calls; inactive means below that.

Test: raisers of Bmi1 knock-in reporter signal – mouse ES cells, Bmi1 luciferase knock-in, single point, esBAF inhibitor project, primary screen (AID 602393);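 further: 0% = median of the plate's neutral control wells and 100% = double that signal; a rise in the Bmi1 reporter signal indicates esBAF inhibition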
Details: 24 h, at 12.5 µM, hits give high values, 100% = twice the neutral-well signal

Row | Structure (SMILES) | reporter increase
1 | Cc1sc(NC(=O)Nc2ccccc2)c(C(N)=O)c1C | inconclusive: 49.8%
2 | CC1=CC(C)(C)n2c(O)c(C3=NC(=S)NC3=O)c3cc(OC(=O)c4cccc5ccccc45)cc1c32 | inactive: -4.94%
3 | COc1ccc(OCCSc2nnc3sc4ccccc4n23)cc1 | inconclusive: 40.9%
4 | CC(=O)c1cnc2cc(-c3ccccc3)nn2c1C | inconclusive: 42.6%
5 | CC1=Nn2c(nnc2-c2n[nH]c3c2CCC3)SC1 | inactive: -6.15%
6 | CNC(=O)C[C@H]1CC[C@@H]2[C@@H](COc3ccc(NC(=O)c4ccccc4OC)cc3C(=O)N2C)O1 | inactive: 0.149%
7 | Cc1nc(NC(=O)C2CC3CCCC(C2)C3=O)sc1C (stereo unspecified) | inconclusive: 41.5%
8 | Cn1cc(Cl)c(C(=O)N/N=C/c2ccc3c4c(cccc24)CC3)n1 | active: 63.1%
9 | CCOC(=O)c1nnc(-c2ccccc2)nc1Sc1ccccc1Cl | inactive: 9.93%
10 | COc1ccc2occ(C(=O)c3ccc(N=C(C)N(C)C)cc3)c2c1 | inconclusive: 40.5%
11 | Cc1ccc(C(=O)N/N=C\c2ccccc2[N+](=O)[O-])cn1 | active: 53.3%
12 | COc1ccc(-c2csc(N(C)C(=O)c3cccs3)n2)cc1 | inconclusive: 43.9%
13 | O=C(C[C@H]1CC[C@H]2[C@@H](COC[C@H](O)CN2C(=O)Nc2ccc(Cl)cc2)O1)NCC1CC1 | inconclusive: 45.7%
14 | COC(=O)CN(C)C(=O)c1ccc2nc(Cc3cccc(Cl)c3)oc2c1 | active: 65.8%
15 | O=C(NC1CCCC1)c1cc(-c2ccc(Cl)cc2)on1 | active: 43.8%
16 | COCCn1c(C)cc(C(=O)CN2C(=O)NC3(CCCCCC3)C2=O)c1C | inconclusive: 42.3%
17 | CCOc1ccc2c(c1)S/C(=C\c1cccs1)C(=O)N2 | inconclusive: 41.6%
18 | O=c1c2ccccc2nc2sc3ccccc3n12 | inconclusive: 41.7%
19 | Fc1cc(Cl)cc2ccc(-c3ccccc3)nc12 | active: 56.2%

Row | Structure (SMILES) | reporter increase
20 | Cc1ccccc1OCc1nc2ccccc2c(=O)n1/N=C/c1ccco1 | inconclusive: 40.7%
21 | COC(=O)c1ccc2c(c1)C(=O)/C(=C/c1ccc(C)cc1)O2 | active: 66.7%
22 | O=c1[nH]c(S)nc2sc3c(c12)CCCC3 | inactive: -1.54%
23 | O=[N+]([O-])c1c(Nc2ccc(O)cc2)cc(Cl)c2nonc12 | inactive: -1.18%
24 | O=Cc1c[nH]c2cccc(OCc3ccccc3)c12 | inconclusive: 46.3%
25 | CC(C)CCNC(=O)C(=O)Nc1ccccc1 | inconclusive: 40.1%
26 | Cc1cccc2nc(CSc3ccc(Cl)cc3)cn12 | active: 75.7%
27 | C[C@@H]1CN([C@H](C)CO)C(=O)c2cc(Br)cnc2O[C@@H]1CN(C)CC1CCOCC1 | inactive: 4.11%
28 | COC(=O)c1ccnc(SCC(=O)c2ccccc2)c1 | inconclusive: 43.1%
29 | CCNC(=O)C[C@@H]1C=C[C@@H](NC(=O)C2CCC2)[C@H](CO)O1 | inactive: 0.113%
30 | C[C@@H]1CN([C@H](C)CO)C(=O)c2cc(NS(=O)(=O)c3ccccc3)ccc2O[C@@H](C)CCCCO[C@@H]1CN(C)CC1CCCCC1 | inactive: -2.44%
31 | CC1=C/C(=C(/c2cc(C)c(O)c(Br)c2)c2ccccc2S(=O)(=O)O)C=C(Br)C1=O | inactive: -43.1%
32 | COc1ccc(NC(=O)/C(C#N)=C/c2ccc(Br)o2)cc1 | inconclusive: 42.9%
33 | COc1cc2ccccc2cc1C(=O)Nc1ccccc1Cl | inconclusive: 40.9%
34 | Cn1nnnc1SCc1csc(Nc2ccccc2)n1 | inconclusive: 42.2%
35 | O=C(Cn1nnc(-c2ccccc2Cl)n1)N1CCCCC1 | inconclusive: 42%
36 | c1ccc(-c2cc(-c3nnc4n3N=C(c3ccc5ccccc5c3)CS4)[nH]n2)cc1 | inactive: 6.4%
37 | O=C(Nc1ccc2c(c1)OCCO2)c1ccc(Cl)c(S(=O)(=O)N2CCCCC2)c1 | inconclusive: 56.9%
38 | O=C(N/N=C/c1cccnc1)c1cc(Br)ccc1O | inconclusive: 34.8%

Row | Structure (SMILES) | reporter increase
39 | O=C(NCc1cccs1)c1ccc2sc([C@H]3C[C@H](O)[C@@H](CO)O3)nc2c1 | inactive: 18.9%
40 | Cc1ccc(-c2csc(-c3c[nH]c4ccccc34)n2)cc1 | inconclusive: 40.4%
41 | Cc1ccc(N2CN=c3s/c(=C\c4ccccn4)c(=O)n3C2)cc1 | active: 76.9%
42 | COc1ccccc1NC(=O)N1C[C@@H](O)COC[C@@H]2O[C@@H](CC(=O)NCCc3ccccc3)CC[C@H]21 | inactive: -2.35%
43 | CCCCCn1cnc2sc(-c3ccccc3)cc2c1=O | active: 81.5%
44 | Cc1ccc(CN2C(=O)C(Cc3ccccc3)Nc3ncnc(N4CCN(c5ccccc5)CC4)c32)cc1 (stereo unspecified) | inactive: -2.83%
45 | Clc1ccccc1/C=C/c1ccnc2ccccc12 | inconclusive: 42%
46 | Cc1ccc(NC(=O)Nc2ccc3c(c2)OCO3)c(Br)c1 | inconclusive: 40.1%
47 | Cc1ccc(S(=O)(=O)Nc2ccc3c(c2)CC(=O)N([C@@H](C)CO)C[C@@H](C)[C@H](CN(C)S(=O)(=O)c2cn(C)cn2)O3)cc1 | inactive: 2.52%
48 | CN(C)S(=O)(=O)N1CCc2ccc(NC(=O)c3ccc(C(F)(F)F)cc3)cc2C1 | inconclusive: 51.3%
49 | CO[C@@H]1CN(C)C(=O)c2ccc(NC(=O)Nc3cccc(F)c3)cc2OC[C@@H](C)N(C(=O)C2CC2)C[C@H]1C | inactive: -0.357%
50 | O=c1c2c(nc3cc(-c4cccc(Cl)c4)[nH]n13)CCC2 | inactive: -6.38%
51 | CC1(C)Cc2c(cnn2-c2ccc(F)cc2)C(NC(=O)CCN2CCCC2=O)C1 (stereo unspecified) | active: 44.5%
52 | CCOc1ccc2nc(NC(=O)Cn3[nH]c(=O)c4ccccc4c3=O)sc2c1 | inconclusive: 53.5%
53 | COC(=O)c1ccccc1NC(=O)c1cc2ccccc2o1 | inconclusive: 43.3%
54 | Cc1ccc(N=C2NC(=O)/C(=C\c3ccco3)S2)cc1 | inconclusive: 50.6%
55 | O=C(N[C@H]1CC[C@H](CCNS(=O)(=O)c2ccc(F)cc2)O[C@@H]1CO)c1cccc(F)c1 | inactive: -1.21%
56 | COc1ccc(-c2nnc(-c3ccccc3)o2)cc1OC | inconclusive: 44.7%
